Assay results from the supplement of paper PMC7238544.
Where a name gives a salt, the structure may show the parent alone. ± gives the standard deviation of the averaged measurements. Some of the results follow.

The compounds below were run on hAMSC donor 1 (assay: Hoechst total cell count ratio vs vehicle control; hAMSC are human adipose-derived mesenchymal stem cells given an EGFP-luciferase plasmid by lipofection; higher = more cells (less toxicity)). Conditions: priming compound concentration 100 µM.
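Note: compound added 30 min before Lipofectamine 3000 lipoplex delivery, triplicate-well means expressed against DMSO vehicle control wells of the same 96-well plate.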

SMILES | Hoechst total cell count ratio
CN1CCN(c2nc3cc(C(F)(F)F)ccc3n3cccc23)CC1 | 0.477 ± 0.083
CN1C(C(=O)Nc2ccccn2)=C(O)c2ccccc2S1(=O)=O [Piroxicam] | 0.456 ± 0.043
CC(=O)N1CCN(c2ccc(OCC3COC(Cn4ccnc4)(c4ccc(Cl)cc4Cl)O3)cc2)CC1 (stereo not drawn) [Ketoconazole] | 1.36 ± 0.061
CN(C)C(=O)C(CCN1CCC(O)(c2ccc(Cl)cc2)CC1)(c1ccccc1)c1ccccc1 [Loperamide hydrochloride] | 0.121 ± 0.018
CN(CCO)CC(O)Cn1cnc2c1c(=O)n(C)c(=O)n2C (stereo not drawn) [Xanthinol nicotinate] | 1.41 ± 0.11
CCC1=C(C)CN(C(=O)NCCc2ccc(S(=O)(=O)NC(=O)N[C@H]3CC[C@H](C)CC3)cc2)C1=O [Glimepiride] | 1.33 ± 0.099
CN(C)c1ccc(O)c2c1C[C@H]1C[C@H]3[C@H](N(C)C)C(O)=C(C(N)=O)C(=O)[C@@]3(O)C(O)=C1C2=O [Minocycline hydrochloride] | 1.01 ± 0.14
Nc1nnc(-c2cccc(Cl)c2Cl)c(N)n1 [Lamotrigine] | 0.939 ± 0.066
COCC1=C(C(=O)OC(C)OC(=O)OC(C)C)N2C(=O)[C@@H](NC(=O)/C(=N\OC)c3csc(N)n3)[C@H]2SC1 (stereo partly drawn) [Cefpodoxime proxetil] | 1.31 ± 0.13
CCn1cc(C(=O)O)c(=O)c2ccc(C)nc21 [Nalidixic acid] | 1.15 ± 0.25
O=C(N[C@H](CO)[C@H](O)c1ccc([N+](=O)[O-])cc1)C(Cl)Cl [Chloramphenicol] | 1.03 ± 0.031
C#C[C@]1(O)CC[C@H]2[C@@H]3[C@H](C)CC4=C(CCC(=O)C4)[C@H]3CC[C@@]21C [Tibolone] | 0.868 ± 0.077
Cc1nnc(SCC2=C(C(=O)O)N3C(=O)[C@@H](NC(=O)Cn4cnnn4)[C@H]3SC2)s1 [Cefazolin sodium] | 1.29 ± 0.14
CN(C)CC/C=C1/c2ccccc2COc2ccc(CC(=O)O)cc21 [Olopatadine hydrochloride] | 1.29 ± 0.26
O=C1CN(/N=C/c2ccc([N+](=O)[O-])o2)C(=O)N1 [Nitrofurantoin] | 1.24 ± 0.38
CC(Oc1c(Cl)cccc1Cl)C1=NCCN1 (stereo not drawn) [Lofexidine hydrochloride] | 1.08 ± 0.049
CC(=O)SCC(Cc1ccccc1)C(=O)NCC(=O)OCc1ccccc1 (stereo not drawn) [Racecadotril] | 1.12 ± 0.13
COc1cccc2c1C(=O)c1c(O)c3c(c(O)c1C2=O)C[C@@](O)(C(=O)CO)C[C@@H]3O[C@H]1C[C@H](N)[C@H](O)[C@H](C)O1 [Doxorubicin hydrochloride] | 0.171 ± 0.1
CC1(C)S[C@@H]2[C@H](/N=C/N3CCCCCC3)C(=O)N2[C@H]1C(=O)O [Mecillinam] | 1.13 ± 0.13

SMILES | Hoechst total cell count ratio
C[C@]12CC[C@@H]3c4ccc(OS(=O)(=O)O)cc4CC[C@H]3[C@@H]1CCC2=O [Estrone 3-sulfate sodium salt] | 1.15 ± 0.11
CC(C)NCC(O)COc1ccc(CC(N)=O)cc1 (stereo not drawn) [Atenolol] | 1.14 ± 0.047
Cc1cc2c(s1)Nc1ccccc1N=C2N1CCN(C)CC1 [Olanzapine] | 1.61 ± 0.25
C[C@H](CCC(=O)O)[C@H]1CC[C@H]2[C@@H]3C(=O)C[C@@H]4CC(=O)CC[C@]4(C)[C@H]3CC(=O)[C@]12C [Dehydrocholic acid] | 1.13 ± 0.075
COc1cc(C(=O)NS(=O)(=O)c2ccccc2C)ccc1Cc1cn(C)c2ccc(NC(=O)OC3CCCC3)cc12 [Zafirlukast] | 1.5 ± 0.066
CN(C)CCc1c[nH]c2ccc(C[C@H]3COC(=O)N3)cc12 [Zolmitriptan] | 1.47 ± 0.1
O=C(O)Cc1ccccc1Nc1c(Cl)cccc1Cl [Diclofenac sodium] | 0.896 ± 0.055
O=C(O)c1cc(/N=N/c2ccc(S(=O)(=O)Nc3ccccn3)cc2)ccc1O [Sulfasalazine] | 1.57 ± 0.039
CC1(C)O[C@@H]2C[C@H]3[C@@H]4C[C@H](F)C5=CC(=O)C=C[C@]5(C)[C@@]4(F)[C@@H](O)C[C@]3(C)[C@]2(C(=O)CO)O1 [Fluocinolone acetonide] | 0.959 ± 0.064
CC(=O)CCCCn1cnc2c1c(=O)n(C)c(=O)n2C [Lomifylline] | 1.19 ± 0.028
CCc1nc(N)nc(N)c1-c1ccc(Cl)cc1 [Pyrimethamine] | 1.6 ± 0.19
COc1cc2nc(N3CCN(C(=O)C4CCCO4)CC3)nc(N)c2cc1OC (stereo not drawn) [Terazosin] | 1.37 ± 0.14
CNC(=C[N+](=O)[O-])NCCSCc1csc(CN(C)C)n1 [Nizatidine] | 1.23 ± 0.055
CC(=O)O[C@H]1C[C@@H]2CC[C@@H]3[C@H](CC[C@@]4(C)[C@H]3C[C@H]([N+]3(C)CCCCC3)[C@@H]4OC(C)=O)[C@@]2(C)C[C@@H]1N1CCCCC1 [Vecuronium bromide] | 0.912 ± 0.18
c1ccc(CC2=NCCN2)cc1 [Priscoline hydrochloride] | 0.935 ± 0.13
CCCCNC(=O)NS(=O)(=O)c1ccc(C)cc1 [Tolbutamide] | 1.19 ± 0.021
Nc1ncn([C@@H]2O[C@H](CO)[C@@H](O)[C@H]2O)c(=O)n1 [5-Azacytidine] | 1.08 ± 0.1
C[C@]12CCC(=O)C=C1CC[C@@H]1[C@@H]2C(=O)C[C@@]2(C)[C@H]1CC[C@]2(O)C(=O)CO [Cortisone] | 1.49 ± 0.26
CN1CC(=O)N2[C@H](c3ccc4c(c3)OCO4)c3[nH]c4ccccc4c3C[C@@H]2C1=O [Tadalafil] | 1.39 ± 0.09
